4 molecules from article PMC5855594 (2018) can be followed below.

One test deals with BSA neo-glycoprotein 11 (Bos taurus, UniProt P02769). The experiment in a line: competitive ELISA. (An ELISA detects its analyte on a solid surface through an enzyme-linked reagent.)
For test [1], the target named is T1, BSA neo-glycoprotein 9 (Bos taurus, UniProt P02769). Kind of test: ELISA.
The target in test [2] is T1, BSA neo-glycoprotein 9. The experiment in a line: competitive ELISA.
A further test has as its target BSA neo-glycoprotein 12 (Bos taurus, UniProt P02769). The experiment in a line: competitive ELISA.
Test [3] concerns the target T2, BSA neo-glycoprotein 10 (Bos taurus, UniProt P02769). The experiment in a line: ELISA.
Test [4] deals with T2, BSA neo-glycoprotein 10. The experiment in a line: competitive ELISA.
T2 sequence (P02769 25-607): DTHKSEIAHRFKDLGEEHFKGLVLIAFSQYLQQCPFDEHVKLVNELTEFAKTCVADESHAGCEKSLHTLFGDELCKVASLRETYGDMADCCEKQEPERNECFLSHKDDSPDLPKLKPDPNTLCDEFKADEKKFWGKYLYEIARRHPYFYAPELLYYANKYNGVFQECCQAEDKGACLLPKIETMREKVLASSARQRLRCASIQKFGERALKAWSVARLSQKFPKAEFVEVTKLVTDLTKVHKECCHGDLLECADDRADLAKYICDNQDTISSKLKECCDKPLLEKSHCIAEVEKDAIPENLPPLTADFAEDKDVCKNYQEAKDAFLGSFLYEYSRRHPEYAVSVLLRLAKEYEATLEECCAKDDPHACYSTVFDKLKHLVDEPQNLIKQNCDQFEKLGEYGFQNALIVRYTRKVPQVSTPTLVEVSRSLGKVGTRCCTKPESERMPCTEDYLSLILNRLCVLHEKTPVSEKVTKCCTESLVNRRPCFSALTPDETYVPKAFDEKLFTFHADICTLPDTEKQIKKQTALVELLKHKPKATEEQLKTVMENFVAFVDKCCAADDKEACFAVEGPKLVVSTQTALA

T1 sequence (P02769 25-607): as above
Chain of BSA neo-glycoprotein 12 (P02769 25-607): as above
Chain of BSA neo-glycoprotein 11 (P02769 25-607): as above

B1: Galectin-3 (protein)
chain: not shown
modifications: BSA conjugated with LacdiNAc-LacNAc (glycan 3)
B1 came in with an IC50 in the test with BSA neo-glycoprotein 11 of 0.011 µM.

B2: Galectin-3 (protein)
chain: not shown
modifications: BSA conjugated with LacdiNAc (glycan 1)
For the molecule B2, binding with BSA neo-glycoprotein 9 [1] was characterised by a dissociation constant (Kd) of 6.29 µM. In addition, the 50% inhibitory concentration (IC50) in the test with BSA neo-glycoprotein 9 [2] was found to be 2.03 µM.

B3: Galectin-3 (protein)
chain: not shown
modifications: BSA conjugated with LacNAc-LacNAc (glycan 4)
As for B3, the IC50 with BSA neo-glycoprotein 12 amounted to 0.031 µM.

B4: Galectin-3 (protein)
chain: not shown
modifications: BSA conjugated with LacNAc (glycan 2)
In the test with BSA neo-glycoprotein 10 [3], B4 registered a Kd of 4.78 µM. In the test with BSA neo-glycoprotein 10 [4], this molecule gave an IC50 of 0.344 µM.

One may read the IC50 as the concentration at which inhibition is half-maximal. Low readings indicate greater potency, high ones weaker potency. In general, Kd refers to the constant that tells how readily two partners part at equilibrium. A lower Kd goes with tighter binding.
